# From PubChem BioAssay (EPA / NIEHS)
# For some of these results: Most of the hits are listed elsewhere, so they are rarer here than in the full data. Records with an inconclusive call do not appear. Only a part is listed here, and it is no random draw. Where a structure was tested more than once in an assay, its records may differ in their call. Active and inactive are the calls of the source. The calls were made as follows, unless noted: active = hit-call score of the fitted dose curve at least 0.9, where 1 is the maximum; inconclusive = response in the unintended direction; inactive = score below 0.9.
# Tests used:
# [1] = biological target: human Peroxisome Proliferator-activated Receptor alpha (PPARa), PPARA (gene 5465) (UniProt Q07869); assay: ATG_PPARa_TRANS: Attagene TRANS-FACTORIAL HepG2 Assay for human Peroxisome Proliferator-activated Receptor alpha (PPARa) (AID 2283001)
# Outline: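 Cells (HepG2) are transfected with multiple reporter transcription units, exposed to chemical for 24 h, then total RNA is reverse-transcribed and amplified. Labelled products are quantified by capillary electrophoresis; induction is referenced to DMSO.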
# [2] = biological target: human Vitamin D Receptor (VDR), VDR (gene 7421) (UniProt P11473); assay: ATG_VDR_TRANS: Attagene TRANS-FACTORIAL HepG2 Assay for human Vitamin D Receptor (VDR) (AID 2283022)
# Outline: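 Fluorescence of labelled reporter cDNA fragments, resolved by capillary electrophoresis, gives mRNA induction after 24 h treatment of HepG2 cells carrying transfected Gal4-fusion reporter units. Activity is fitted in the positive direction with DMSO as baseline.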
# [3] = read-out: Intercellular Adhesion Molecule 1 (ICAM1), ICAM1 (gene 3383); assay: BSK_3C_ICAM1: BioMAP Diversity Plus: 3C Assay for Intercellular Adhesion Molecule 1 (ICAM1) Biomarker Activity (AID 2283003; active = hit-call score of the fitted dose curve at least 0.9, where 1 is the maximum; inactive = score below 0.9); details: actives raise or lower the signal; primary human endothelial cells (HUVEC)
# Outline: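 Chemicals are dosed onto primary human umbilical vein endothelium (3C system). After 24 h, ICAM-1 is measured by ELISA, and responses are fitted bidirectionally relative to DMSO.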
# [4] = BSK_3C_Proliferation: Cell Proliferation Assessment in the BioMAP Diversity Plus: 3C Assay (AID 2283006; active = hit-call score of the fitted dose curve at least 0.9, where 1 is the maximum; inactive = score below 0.9;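 also: potency may reflect either rise or fall in cell number versus DMSO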); details: primary human endothelial cells (HUVEC)
# Outline: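 Cells (human umbilical vein endothelial, sub-confluent) receive test chemical; after 48 h they are fixed in 10% trichloroacetic acid, stained with 0.1% SRB and read at 560 nm. Activity is referenced to DMSO, fitting increases and decreases.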
# [5] = read-out: Plasminogen activator inhibitor-1 (PAI1), SERPINE1 (gene 5054); assay: BSK_BE3C_PAI1: BioMAP Diversity Plus: BE3C Assay for Plasminogen activator inhibitor-1 (PAI1) Biomarker Activity (AID 2283037; active = hit-call score of the fitted dose curve at least 0.9, where 1 is the maximum; inactive = score below 0.9); details: actives raise or lower the signal; primary human bronchial epithelial cells
# Outline: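 Values derive from bidirectional fitting against DMSO baseline of PAI-1 levels, measured by ELISA in human bronchial epithelial cells 24 h after compound addition.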
# [6] = read-out: Thrombomodulin, THBD (gene 7056); assay: BSK_CASM3C_Thrombomodulin: BioMAP Diversity Plus: CASM3C Assay for Thrombomodulin Biomarker Activity (AID 2283051; active = hit-call score of the fitted dose curve at least 0.9, where 1 is the maximum; inactive = score below 0.9;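 also: thrombomodulin protein level measured by ELISA 24 h after dosing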); details: actives raise or lower the signal; primary human coronary artery smooth muscle cells
# [7] = read-out: Forkhead box O3 (FOXO3), FOXO3 (gene 2309); assay: LTEA_HepaRG_FOXO3: Life Technologies and Expression Analysis (LTEA) Assay for Forkhead box O3 (FOXO3) using HepaRG (AID 2283459; active = hit-call score of the fitted dose curve at least 0.9, where 1 is the maximum; inactive = score below 0.9); details: actives raise or lower the signal; mRNA level, 48 h
# Outline: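 Gene-expression endpoint: FOXO3 transcript level by qRT-PCR in HepaRG cultures treated 48 h with chemicals up to 100 uM (half-log, 0.5% DMSO vehicle).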
# [8] = read-out: Glutathione S-transferase M3 (GSTM3), GSTM3 (gene 2947); assay: LTEA_HepaRG_GSTM3: Life Technologies and Expression Analysis (LTEA) Assay for Glutathione S-transferase M3 (GSTM3) using HepaRG (AID 2283501; active = hit-call score of the fitted dose curve at least 0.9, where 1 is the maximum; inactive = score below 0.9); details: actives raise or lower the signal; mRNA level, 48 h
# Outline: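 Changes in GSTM3 expression, an oxidative-stress marker, were scored by bidirectional curve fitting against 0.5% DMSO vehicle. Human HepaRG cultures received chemicals for 48 h in duplicate, highest concentration 100 uM with half-log dilutions.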
# [9] = CCTE_Simmons_MITO_basal_resp_rate: CCTE's HepG2 Seahorse XF Respirometric Screening Assay at Basal Respiratory State, Simmons Lab (AID 2284001; active = hit-call score of the fitted dose curve at least 0.9, where 1 is the maximum; inactive = score below 0.9); details: actives raise or lower the signal
# Outline: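 Readout is oxygen consumption rate after test compound injection, measured by Seahorse XF in HepG2 cells. Seven concentrations from 125 nM up to 100 uM final are tested, and activity in either direction is fitted against DMSO.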
# [10] = biological target: human Peroxisome Proliferator-activated Receptor delta (PPARd), PPARD (gene 5467) (UniProt Q03181); assay: ATG_PPARd_TRANS: Attagene TRANS-FACTORIAL HepG2 Assay for human Peroxisome Proliferator-activated Receptor delta (PPARd) (AID 2283002)
# Outline: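 Measured quantity: GAL4-UAS reporter transcript induction in HepG2 after 24 h chemical dosing, with NR-Gal4 chimeras supplied by transient transfection. Detection by RT-PCR and capillary electrophoresis; upward fit against DMSO.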
# [11] = biological target: Retinoic acid receptor RXR-alpha (Homo sapiens) (UniProt P19793); assay: ATG_RXRa_TRANS: Attagene TRANS-FACTORIAL HepG2 Assay for human Retinoid X Receptor alpha (RXRa) (AID 2283012)
# Outline: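 Measures exogenous chimeric NR-GAL4 activity in transfected HepG2 liver cells after 24 h of dosing. Induced reporter mRNA was detected by RT-PCR with capillary electrophoresis, and gain of signal was analysed against DMSO.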
# [12] = biological target: human Retinoic Acid Receptor beta (RARb), RARB (gene 5915) (UniProt P10826); assay: ATG_RARb_TRANS: Attagene TRANS-FACTORIAL HepG2 Assay for human Retinoic Acid Receptor beta (AID 2283004)
# Outline: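 HepG2, transient MRTU transfection, NR–Gal4 chimera, 24 h treatment; RT-PCR plus CE fluorescence detection of reporter mRNA; gain of signal vs DMSO.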
# [13] = biological target: human Retinoic Acid Receptor gamma (RARg), RARG (gene 5916) (UniProt P13631); assay: ATG_RARg_TRANS: Attagene TRANS-FACTORIAL HepG2 Assay for human Retinoic Acid Receptor gamma (RARg) (AID 2283009)
# Outline: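 TRANS format measured activity of exogenous NR-GAL4 fusion (RARg) in transfected HepG2 liver cells after 24 h dosing. Induced reporter RNA was detected by RT-PCR/capillary electrophoresis fluorescence, analysed in the positive direction against DMSO.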
# [14] = biological target: human RAR-related Orphan Receptor gamma (RORg), RORC (gene 6097) (UniProt P51449); assay: ATG_RORg_TRANS: Attagene TRANS-FACTORIAL HepG2 Assay for human RAR-related Orphan Receptor gamma (RORg) (AID 2283011)
# Outline: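 Activity is scored as increase in GAL4-UAS reporter mRNA over DMSO, detected by fluorescent RT-PCR and capillary electrophoresis in HepG2 cells transiently expressing a RORg-Gal4 chimera, 24 h after dosing.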
# [15] = biological target: human Retinoid X Receptor beta (RXRb), RXRB (gene 6257) (UniProt P28702); assay: ATG_RXRb_TRANS: Attagene TRANS-FACTORIAL HepG2 Assay for human Retinoid X Receptor beta (RXRb) (AID 2283013)
# Outline: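 Chimeric receptor-Gal4 activity was assessed in transiently transfected human HepG2 cells after 24 h exposure. Transcripts from GAL4-UAS reporters were quantified by fluorescent RT-PCR and capillary electrophoresis, with DMSO as negative control and baseline.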
# [16] = read-out: Plasminogen activator inhibitor-1 (PAI1), SERPINE1 (gene 5054); assay: BSK_hDFCGF_PAI1: BioMAP Diversity Plus: hDFCGF Assay for Plasminogen activator inhibitor-1 (PAI1) Biomarker Activity (AID 2283066; active = hit-call score of the fitted dose curve at least 0.9, where 1 is the maximum; inactive = score below 0.9); details: actives raise or lower the signal; primary human foreskin fibroblasts
# Outline: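 Fibroblasts from human foreskin were treated with test chemical. After 24 h, PAI-1 was measured by ELISA. Activity was fitted in both directions relative to DMSO.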
# [17] = read-out: C-C motif chemokine 2 (Homo sapiens) (UniProt P13500); assay: BSK_KF3CT_MCP1: BioMAP Diversity Plus: KF3CT Assay for Monocyte Chemoattractant Protein 1 (MCP1/CCL2) Biomarker Activity (AID 2283073; active = hit-call score of the fitted dose curve at least 0.9, where 1 is the maximum; inactive = score below 0.9); details: actives raise or lower the signal; primary human keratinocytes with fibroblasts
# Outline: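 Keratinocytes and foreskin fibroblasts were co-cultured, dosed with chemical, and sampled 24 h later. MCP-1 was quantified by ELISA, and the endpoint was analyzed with bidirectional fitting using DMSO as negative control.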
# [18] = BSK_LPS_SRB: Viability Assessment in the BioMAP Diversity Plus: LPS Assay (AID 2283079; active = hit-call score of the fitted dose curve at least 0.9, where 1 is the maximum; inactive = score below 0.9;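 also: total protein by sulforhodamine B absorbance as a cytotoxicity measure; measured one day after compound addition; fitted in both directions against DMSO so loss or gain of signal counts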); details: primary human HUVEC with PBMC
# Outline: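 Overt cytotoxicity was gauged by sulforhodamine B total-protein staining in a primary human vascular endothelial and mononuclear cell co-culture 24 h post-dosing. Activity was fitted in both directions relative to DMSO.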
# [19] = CCTE_Mundy_HCI_Cortical_Synap_Neur_Matur_NeuriteLength: CCTE's Synaptogenesis and Neurite Maturation Assay in rat cortical cells for Neurite Length, Mundy Lab (AID 2284214; active = hit-call score of the fitted dose curve at least 0.9, where 1 is the maximum; inactive = score below 0.9)
# Outline: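 Cultures of rat primary cortical cells received chemical at DIV 7 and were fixed at DIV 12, after glial arrest with AraC at DIV 5. Neurite length was measured by automated imaging of MAP2 immunofluorescence.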
# [20] = biological target: Peroxisome proliferator-activated receptor gamma (Homo sapiens) (UniProt P37231); assay: ATG_PPARg_TRANS: Attagene TRANS-FACTORIAL HepG2 Assay for human Peroxisome Proliferator-activated Receptor-gamma (PPARg) (AID 2283007)
# Outline: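 Twenty-four hours after chemical dosing of transiently transfected HepG2 cells, isolated RNA was converted to cDNA, reporter sequences amplified and 6-FAM-labelled, then HpaI-digested and analysed by capillary electrophoresis. Signal increase against DMSO was fitted.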
# [21] = read-out: Bcl-2 (BAD) gene, BAD (gene 572); assay: LTEA_HepaRG_BAD: Life Technologies and Expression Analysis (LTEA) Assay for Bcl-2 (BAD) gene using HepaRG (AID 2283469; active = hit-call score of the fitted dose curve at least 0.9, where 1 is the maximum; inactive = score below 0.9); details: actives raise or lower the signal; mRNA level, 48 h
# Outline: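 Activity values reflect up- or down-regulation of BAD mRNA in human HepaRG hepatic cells treated 48 h in serum-free medium, with eight-point half-log dosing capped at 100 uM and 0.5% DMSO vehicle.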
# [22] = biological target: Cellular tumor antigen p53 (Homo sapiens) (UniProt P04637); assay: TOX21_p53_BLA_p3_ratio: Tox21 HCT-116 p53 Agonism Beta-lactamase Assay, Ratio, Phase 3 (AID 2283596)
# Outline: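 Cells were seeded at 4000/well, rested 5 h at 37C, then dosed with DMSO compound solutions (217-fold dilution) for 16 h. CCF4-AM substrate was loaded for 2 h at room temperature, and the 460/530 nm emission ratio was fitted for gain of signal versus DMSO.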
compound,measurement,setting,value
O=C(O)c1cc[c]([Hg][Cl])cc1,outcome,[1],inactive
same,outcome,[2],inactive
Oc1cc(Cl)c(Cl)cc1Cl,outcome,[3],inactive
same,AC50,[4],active: 26 µM
same,AC50,[5],active: 33.4 µM
same,outcome,[6],inactive
same,outcome,[7],inactive
same,outcome,[8],inactive
same,AC50,[9],active: 11.5 µM
CN(N=O)c1ccc([N+](=O)[O-])cc1,outcome,[10],inactive
CCC[CH2][Sn]([CH2]CCC)([CH2]CCC)[CH2]CCC,AC50,[10],active: 33.4 µM
same,outcome,[2],inactive
O=c1oc2ccccc2c(O)c1C(CC(O)c1ccc(-c2ccc(Br)cc2)cc1)c1ccccc1 (stereo not drawn),outcome,[10],inactive
same,outcome,[11],inactive
O=S1OCC2C(CO1)C1(Cl)C(Cl)=C(Cl)C2(Cl)C1(Cl)Cl (stereo not drawn),outcome,[12],inactive
same,outcome,[13],inactive
same,outcome,[14],inactive
same,outcome,[15],inactive
same,AC50,[16],active: 27.4 µM
same,AC50,[17],active: 30.6 µM
same,AC50,[18],active: 29.6 µM
same,AC50,[19],active: 19.9 µM
COc1nn(CSP(=S)(OC)OC)c(=O)s1,AC50,[20],active: 28.4 µM
C[C@]12CCC(=O)C=C1CC[C@@H]1[C@@H]2CC[C@@]2(C)[C@H]1CC[C@]2(C)O,outcome,[10],inactive
same,outcome,[21],inactive
same,AC50,[22],active: 47.6 µM
O=C(CCl)CCl,outcome,[10],inactive
Clc1ccc(C2(Cn3cncn3)CC(Br)CO2)c(Cl)c1 (stereo not drawn),outcome,[20],inactive
